# Measurements as given in PMC12102759 (2025).
# B1: CAPRIN1 peptide 364-379 (Caprin-1), 16-mer library wild type / G3BP1 NFT2 (G3BP1 NTF2 domain, […]) (parent complex)
# chain 1: AQMQGPYNFIQDSMLD
# chain 2: not shown
# Variants of: B1
# Experiment: proteomic peptide phage display deep mutational scan (ProP-PD DMS): M13 P8 16-mer library selected against immobilised GST-tagged bait for four days (rounds), NGS of the eluted pools per day and pseudo-replica; bait immobilised on MaxiSorp plates (10 µg), library pre-cleared on GST, 2 h binding at 4 °C, five washes; one round per day, days 1-4; value from days 2 and 3
row,Variant,screen value
1,chain 1 Q11G,"0.0037 average fractional NGS count over selection days 2 and 3 (reads of this peptide / all reads for the bait, averaged over …"
2,chain 1 Q11F,"0.000281 average fractional NGS count over selection days 2 and 3 (reads of this peptide / all reads for the bait, averaged over …"
3,chain 1 Q2A,"0.0126 average fractional NGS count over selection days 2 and 3 (reads of this peptide / all reads for the bait, averaged over …"
4,chain 1 G5V,"0.00114 average fractional NGS count over selection days 2 and 3 (reads of this peptide / all reads for the bait, averaged over …"
5,chain 1 D12E,"0.00279 average fractional NGS count over selection days 2 and 3 (reads of this peptide / all reads for the bait, averaged over …"
6,chain 1 Q11L,"0.000312 average fractional NGS count over selection days 2 and 3 (reads of this peptide / all reads for the bait, averaged over …"
7,chain 1 G5Q,"0.000636 average fractional NGS count over selection days 2 and 3 (reads of this peptide / all reads for the bait, averaged over …"
8,chain 1 Q2G,"0.000442 average fractional NGS count over selection days 2 and 3 (reads of this peptide / all reads for the bait, averaged over …"
9,chain 1 Q11T,"0.00046 average fractional NGS count over selection days 2 and 3 (reads of this peptide / all reads for the bait, averaged over …"
10,chain 1 G5H,"0.000938 average fractional NGS count over selection days 2 and 3 (reads of this peptide / all reads for the bait, averaged over …"
11,chain 1 M14N,"0.000389 average fractional NGS count over selection days 2 and 3 (reads of this peptide / all reads for the bait, averaged over …"
12,chain 1 M3S,"0.000351 average fractional NGS count over selection days 2 and 3 (reads of this peptide / all reads for the bait, averaged over …"
13,chain 1 G5T,"0.00108 average fractional NGS count over selection days 2 and 3 (reads of this peptide / all reads for the bait, averaged over …"
14,chain 1 M14A,"0.00158 average fractional NGS count over selection days 2 and 3 (reads of this peptide / all reads for the bait, averaged over …"
15,chain 1 Q4M,"0.0075 average fractional NGS count over selection days 2 and 3 (reads of this peptide / all reads for the bait, averaged over …"
16,chain 1 P6E,"0.000429 average fractional NGS count over selection days 2 and 3 (reads of this peptide / all reads for the bait, averaged over …"
17,chain 1 N8Q,"0.00747 average fractional NGS count over selection days 2 and 3 (reads of this peptide / all reads for the bait, averaged over …"
18,chain 1 I10H,"0.000282 average fractional NGS count over selection days 2 and 3 (reads of this peptide / all reads for the bait, averaged over …"
19,chain 1 D12F,"0.000325 average fractional NGS count over selection days 2 and 3 (reads of this peptide / all reads for the bait, averaged over …"
20,chain 1 Q4G,"0.0027 average fractional NGS count over selection days 2 and 3 (reads of this peptide / all reads for the bait, averaged over …"
21,chain 1 G5D,"0.000228 average fractional NGS count over selection days 2 and 3 (reads of this peptide / all reads for the bait, averaged over …"
22,chain 1 I10L,"0.000748 average fractional NGS count over selection days 2 and 3 (reads of this peptide / all reads for the bait, averaged over …"
23,chain 1 N8D,"0.000568 average fractional NGS count over selection days 2 and 3 (reads of this peptide / all reads for the bait, averaged over …"
24,chain 1 D12V,"0.000345 average fractional NGS count over selection days 2 and 3 (reads of this peptide / all reads for the bait, averaged over …"
25,chain 1 Q4N,"0.00188 average fractional NGS count over selection days 2 and 3 (reads of this peptide / all reads for the bait, averaged over …"

row,Variant,screen value
1,chain 1 A1I,"0.00024 average fractional NGS count over selection days 2 and 3 (reads of this peptide / all reads for the bait, averaged over …"
2,chain 1 P6Y,"0.000656 average fractional NGS count over selection days 2 and 3 (reads of this peptide / all reads for the bait, averaged over …"
3,chain 1 I10M,"0.00334 average fractional NGS count over selection days 2 and 3 (reads of this peptide / all reads for the bait, averaged over …"
4,chain 1 A1S,"0.000106 average fractional NGS count over selection days 2 and 3 (reads of this peptide / all reads for the bait, averaged over …"
5,chain 1 M3Y,"0.00178 average fractional NGS count over selection days 2 and 3 (reads of this peptide / all reads for the bait, averaged over …"
6,chain 1 M3G,"0.00384 average fractional NGS count over selection days 2 and 3 (reads of this peptide / all reads for the bait, averaged over …"
7,chain 1 G5N,"0.000337 average fractional NGS count over selection days 2 and 3 (reads of this peptide / all reads for the bait, averaged over …"
8,chain 1 N8H,"0.00457 average fractional NGS count over selection days 2 and 3 (reads of this peptide / all reads for the bait, averaged over …"
9,chain 1 I10Y,"0.000332 average fractional NGS count over selection days 2 and 3 (reads of this peptide / all reads for the bait, averaged over …"
10,chain 1 N8M,"0.00371 average fractional NGS count over selection days 2 and 3 (reads of this peptide / all reads for the bait, averaged over …"
11,chain 1 P6H,"0.000772 average fractional NGS count over selection days 2 and 3 (reads of this peptide / all reads for the bait, averaged over …"
12,chain 1 N8Y,"0.00187 average fractional NGS count over selection days 2 and 3 (reads of this peptide / all reads for the bait, averaged over …"
13,chain 1 N8W,"0.0215 average fractional NGS count over selection days 2 and 3 (reads of this peptide / all reads for the bait, averaged over …"
14,chain 1 Q4R,"0.000279 average fractional NGS count over selection days 2 and 3 (reads of this peptide / all reads for the bait, averaged over …"
15,chain 1 I10F,"0.00937 average fractional NGS count over selection days 2 and 3 (reads of this peptide / all reads for the bait, averaged over …"
16,chain 1 Y7F,"0.00144 average fractional NGS count over selection days 2 and 3 (reads of this peptide / all reads for the bait, averaged over …"
17,chain 1 M3F,"0.00132 average fractional NGS count over selection days 2 and 3 (reads of this peptide / all reads for the bait, averaged over …"
18,chain 1 M14E,"0.000345 average fractional NGS count over selection days 2 and 3 (reads of this peptide / all reads for the bait, averaged over …"
19,chain 1 N8G,"0.000246 average fractional NGS count over selection days 2 and 3 (reads of this peptide / all reads for the bait, averaged over …"
20,chain 1 N8A,"0.0123 average fractional NGS count over selection days 2 and 3 (reads of this peptide / all reads for the bait, averaged over …"
21,chain 1 M3H,"0.00286 average fractional NGS count over selection days 2 and 3 (reads of this peptide / all reads for the bait, averaged over …"
22,chain 1 Y7P,"0.000114 average fractional NGS count over selection days 2 and 3 (reads of this peptide / all reads for the bait, averaged over …"
23,chain 1 Q2I,"0.000733 average fractional NGS count over selection days 2 and 3 (reads of this peptide / all reads for the bait, averaged over …"
24,chain 1 L15F,"0.000191 average fractional NGS count over selection days 2 and 3 (reads of this peptide / all reads for the bait, averaged over …"
25,chain 1 P6R,"0.00176 average fractional NGS count over selection days 2 and 3 (reads of this peptide / all reads for the bait, averaged over …"

row,Variant,screen value
1,chain 1 A1V,"0.00538 average fractional NGS count over selection days 2 and 3 (reads of this peptide / all reads for the bait, averaged over …"
2,chain 1 A1G,"0.000992 average fractional NGS count over selection days 2 and 3 (reads of this peptide / all reads for the bait, averaged over …"
3,chain 1 P6S,"0.000844 average fractional NGS count over selection days 2 and 3 (reads of this peptide / all reads for the bait, averaged over …"
4,chain 1 M14R,"0.000201 average fractional NGS count over selection days 2 and 3 (reads of this peptide / all reads for the bait, averaged over …"
5,chain 1 M3A,"0.000963 average fractional NGS count over selection days 2 and 3 (reads of this peptide / all reads for the bait, averaged over …"
6,chain 1 P6L,"0.0027 average fractional NGS count over selection days 2 and 3 (reads of this peptide / all reads for the bait, averaged over …"
7,chain 1 Q4I,"0.017 average fractional NGS count over selection days 2 and 3 (reads of this peptide / all reads for the bait, averaged over …"
8,chain 1 N8I,"0.00118 average fractional NGS count over selection days 2 and 3 (reads of this peptide / all reads for the bait, averaged over …"
9,chain 1 D12L,"0.000557 average fractional NGS count over selection days 2 and 3 (reads of this peptide / all reads for the bait, averaged over …"
10,chain 1 D12R,"0.000239 average fractional NGS count over selection days 2 and 3 (reads of this peptide / all reads for the bait, averaged over …"
11,chain 1 M14F,"0.00517 average fractional NGS count over selection days 2 and 3 (reads of this peptide / all reads for the bait, averaged over …"
12,chain 1 M3Q,"0.00839 average fractional NGS count over selection days 2 and 3 (reads of this peptide / all reads for the bait, averaged over …"
13,chain 1 M3E,"0.00395 average fractional NGS count over selection days 2 and 3 (reads of this peptide / all reads for the bait, averaged over …"
14,chain 1 D12P,"0.00335 average fractional NGS count over selection days 2 and 3 (reads of this peptide / all reads for the bait, averaged over …"
15,chain 1 Q4L,"0.0014 average fractional NGS count over selection days 2 and 3 (reads of this peptide / all reads for the bait, averaged over …"
16,chain 1 Q11R,"0.000196 average fractional NGS count over selection days 2 and 3 (reads of this peptide / all reads for the bait, averaged over …"
17,chain 1 A1E,"0.000756 average fractional NGS count over selection days 2 and 3 (reads of this peptide / all reads for the bait, averaged over …"
18,chain 1 A1D,"0.00095 average fractional NGS count over selection days 2 and 3 (reads of this peptide / all reads for the bait, averaged over …"
19,chain 1 M3R,"0.000486 average fractional NGS count over selection days 2 and 3 (reads of this peptide / all reads for the bait, averaged over …"
20,chain 1 Q11W,"0.000693 average fractional NGS count over selection days 2 and 3 (reads of this peptide / all reads for the bait, averaged over …"
21,chain 1 G5P,"0.00327 average fractional NGS count over selection days 2 and 3 (reads of this peptide / all reads for the bait, averaged over …"
22,chain 1 F9Q,"0.000249 average fractional NGS count over selection days 2 and 3 (reads of this peptide / all reads for the bait, averaged over …"
23,chain 1 Q2R,"0.000371 average fractional NGS count over selection days 2 and 3 (reads of this peptide / all reads for the bait, averaged over …"
24,chain 1 Q4P,"0.00127 average fractional NGS count over selection days 2 and 3 (reads of this peptide / all reads for the bait, averaged over …"
25,chain 1 M14D,"0.000927 average fractional NGS count over selection days 2 and 3 (reads of this peptide / all reads for the bait, averaged over …"
